# Reference: PubChem BioAssay AID1745853 (National Center for Advancing Translational Sciences (NCATS), 2022)
# “And” between values parts separate entries of the source, which are not always exact repeats. Equal values may be shown once. The list shows a part of the results. These are further read-outs of the screen, such as a control signal, another cell line or another target. No call is given for them.
# Legend:
# Experiment in all cases: Primary Screen for Target Class Profiling of Small Molecule Inhibitors of Methyltransferases
# [1] = biological target: Glycine N-methyltransferase (Homo sapiens) (UniProt Q14749); conditions: purified enzyme, MTase-Glo SAH luminescence; measured here: GNMT inhibition; at 40 µM; stronger effect = lower value
# Procedure, shortened: (§1)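 Each enzyme was reacted with SAM and its substrate, with compounds tested once at 40 uM; SAH formed was read by MTase-Glo luminescence.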
# [2] = biological target: Guanidinoacetate N-methyltransferase (Homo sapiens) (UniProt Q14353); conditions: purified enzyme, MTase-Glo SAH luminescence; measured here: GAMT inhibition; at 40 µM; stronger effect = lower value
# Procedure, shortened: as §1
# [3] = biological target: Histamine N-methyltransferase (Homo sapiens) (UniProt P50135); conditions: purified enzyme, MTase-Glo SAH luminescence; measured here: HNMT inhibition; at 40 µM; stronger effect = lower value
# Procedure, shortened: as §1
# [4] = biological target: Nicotinamide N-methyltransferase (Homo sapiens) (UniProt P40261); conditions: purified enzyme, MTase-Glo SAH luminescence; measured here: NNMT inhibition; at 40 µM; stronger effect = lower value
# Procedure, shortened: as §1
# [5] = biological target: Phenylethanolamine N-methyltransferase (Homo sapiens) (UniProt P11086); conditions: purified enzyme, MTase-Glo SAH luminescence; measured here: PNMT inhibition; at 40 µM; stronger effect = lower value
# Procedure, shortened: as §1
# % is scaled to controls: 0 for no effect and ±100 for the full control effect.
SMILES,"activity change, negative = inhibition [1]","activity change, negative = inhibition [2]","activity change, negative = inhibition [3]","activity change, negative = inhibition [4]","activity change, negative = inhibition [5]"
COC(=O)[C@H](c1ccccc1Cl)N1CCC2SC(=O)C=C2C1 (some centres not stated),-10.3%,-2.68%,-12.5%,-21.6%,-12.8%
COC(=O)c1cc2n(n1)CC(C)(C(=O)NC1CCCCCC1)N(c1cccc(Cl)c1)C2=O (configuration not stated),3.56%,0%,5.92%,1.2%,3.69%
CC(C)CN1CCc2[nH]cnc2C12CCN(C(=O)c1n[nH]c3c1CCC3)CC2,-5.07%,1.31%,-24.4%,-16.1%,-12.1%
NCc1ccc(Oc2ccccc2)cc1,–,5.35%,–,-6.25%,2.66%
Cc1cc2c(cc3n2CC(C)(C(=O)NC2CCCCC2)N(Cc2ccc(OC(C)C)cc2)C3=O)o1 (configuration not stated),-7.05%,4.3%,-6.32%,-6.28%,-6.65%
O=C(NOCC1CC1)c1ccc(F)c(F)c1Nc1ccc(I)cc1Cl,0.952%,-6.38%,7.83%,-29.9%,-1.67%
COc1ccc(-c2cc(N3CCCC(NC(=O)C4CCCC4)C3)n[nH]2)cc1 (configuration not stated),-7.67%,-0.344%,-0.024%,-1.75%,-0.313%
O=C(Nc1ccccc1)N1CCC(Oc2ccccc2-c2nc(-c3ccccc3)no2)C1 (configuration not stated),-5.66%,0.093%,-5.09%,-2.76%,-3.97%
Cc1ccc(CNC(=O)Cn2nc3n(CCC(C)C)c(=O)c4ccccc4n3c2=O)cc1,0.893%,0%,11.2%,7.46%,5.63%
CC1(C)CCC(c2ccc(Cl)cc2)=C(CN2CCN(c3ccc(C(=O)NS(=O)(=O)c4ccc(N[C@H](CCN5CCOCC5)CSc5ccccc5)c(S(=O)(=O)C(F)(F)F)c4)cc3)CC2)C1,-11%,-53.4%,-24.7%,-90.1%,-90.7%
O=C(COc1ccc(C(=O)c2ccccc2)cc1)NC1CCN(Cc2ccccc2)CC1,0.112%,4.28%,-6.99%,-19.3%,-2.44%
COCC(=O)N1CCC(c2nn(-c3ccccn3)c(=O)[nH]2)CC1,-5.09%,-16.1%,-4.33%,-16.4%,-8.56%
O=S(=O)(Cc1ccccc1)NC[C@H]1Cn2cc(-c3ccccc3)nc2CO1,-4.35%,-3.31%,-2.67%,-5.13%,-1.72%
C=C[C@@]1(C)C=C2C(=O)C(O)=C3[C@](C)(C(=O)O)CC[C@@H]4C[C@]34[C@]2(O)C(=O)C1,0%,-12.7%,0.786%,-21%,-1.91%
CCOC(=O)c1cc2n(n1)CC(C)(C(=O)NCc1ccc(C)cc1)N(CCc1cccs1)C2=O (configuration not stated),2.36%,0%,6.31%,1.95%,0.469%
COC(CCc1ccc(O)cc1)CC(=O)CCc1ccc(O)cc1 (configuration not stated),2.29%,2.67%,10.2%,-10.8%,-4.9%
COc1cc2c(NC3CCN(C)CC3)nc(N3CCCN(C)CC3)nc2cc1OCc1ccccc1,-13.7%,–,-26.3%,-21.6%,3.12%
CC(=O)OC[C@]12[C@H](OC(C)=O)[C@H](OC(=O)c3ccccc3)[C@@H]3[C@@H](OC(C)=O)[C@]1(OC3(C)C)[C@H](C)C[C@H](OC(C)=O)[C@@H]2OC(=O)c1ccccc1,0%,-0.999%,2.29%,-14.6%,2.65%
O=C(Cn1ccc2cc(S(=O)(=O)N3CCCC3)ccc21)NCc1cccc(F)c1,-1.11%,0.58%,0.712%,-4.87%,-2.42%

SMILES,"activity change, negative = inhibition [1]","activity change, negative = inhibition [2]","activity change, negative = inhibition [3]","activity change, negative = inhibition [4]","activity change, negative = inhibition [5]"
COc1ccccc1CNC(=O)C1(C)Cn2cnc(C(=O)Nc3cccc(Cl)c3C)c2C(=O)N1C1CC1 (configuration not stated),-5.18%,0%,1.86%,-1.19%,-0.368%
CC(C)(Oc1nn(CCOc2ccccc2)c2ccccc12)C(=O)NCc1ccncc1,-9.51%,-10.1%,-8.66%,-9.43%,-4.25%
CC1CC(C)CN(CCCN2C(=O)c3ccc(-c4ccco4)n3CC2(C)C(=O)NC2CCCCC2)C1 (configuration not stated),-4.72%,4.55%,-6.05%,2.29%,0.397%
FC(F)Oc1ccccc1CN(CC1CCN(C2CCCC2)CC1)CC1CCCO1 (configuration not stated),-1.66%,1.58%,-17.5%,-6.81%,6.78%
CCc1cc2c(cc3n2CC(C)(C(=O)NC2CCCCC2)N(C2CCCCC2)C3=O)s1 (configuration not stated),0.315%,4.25%,3.32%,2.13%,0.834%
COc1ccccc1-c1ccc2c(n1)CN(CC(=O)N1CCCC1)C(=O)CO2,-6.72%,-7.08%,-2.27%,-9.68%,-7.44%
CCN(Cc1nccn1C)C(=O)c1ccc(N2CCSCC2)nc1,-5.01%,-10.2%,-6.48%,-17.1%,-13.4%
CCc1cc2c(cc3n2CC(C)(C(=O)NC2CCC(C)CC2)N(CCCc2ccccc2)C3=O)s1 (configuration not stated),4.59%,-5.64%,6.32%,4.45%,2.34%
COc1ccccc1-n1cc(C(=O)N2CCC3(CCNC(=O)CC3)CC2)cn1,-2.24%,-2.18%,1.53%,-2.75%,-1.18%
COC(=O)c1ccc(COc2ccc3c(-c4ccccc4)cc(=O)oc3c2C)cc1,-6.76%,0.977%,-0.878%,3.62%,-6.32%
CCCN1C(=O)c2cc(C(=O)NCCc3ccc(OC)c(OC)c3)nn2CC1(C)C(=O)NC1CCCC1 (configuration not stated),4.18%,0.641%,-2.35%,5.39%,2.2%
CC(C)OCCCNC(=O)C1c2c(n(C)c3ccccc23)SCC(=O)N1c1cccc(Cl)c1 (configuration not stated),4.21%,0%,0.553%,-2.15%,4.48%
C[C@@H]1[C@H](C)CC[C@]2(C(=O)O[C@@H]3O[C@@H](CO[C@@H]4O[C@@H](CO)[C@@H](O[C@@H]5O[C@@H](C)[C@@H](O)[C@@H](O)[C@H]5O)[C@@H](O)[C@H]4O)[C@@H](O)[C@@H](O)[C@H]3O)CC[C@]3(C)C(=CC[C@H]4[C@@]5(C)C[C@@H](O)[C@@H](O)[C@](C)(CO)[C@@H]5CC[C@@]43C)[C@H]12,–,1.16%,–,-10.6%,0.641%
CC(C)CNc1ncnc2c1CN(C1CNC1)C(=O)CN2C,-4.21%,-5.4%,-2.57%,-8.15%,-20.4%
CC[C@]1(O)CC2CN(CCc3c([nH]c4ccccc34)[C@@](C(=O)OC)(c3cc4c(cc3OC)N(C)[C@H]3[C@@](O)(C(=O)OC)[C@H](OC(C)=O)[C@]5(CC)C=CCN6CC[C@]43[C@@H]65)C2)C1 (some centres not stated),-7.17% and -35.6%,15.9% and 13.6% and 20.2%,8.33% and 6.34%,2.25% and -0.927% and -1.96%,8.41% and 6.71% and 10.2%
CCCn1c(=O)c2cc(Cl)ccc2n2c(SCc3ccccc3)nnc12,-20.7%,0%,9.21%,-8.18%,4%
CC1CCCC(NC(=O)C2(C)Cn3c(cc4occc43)C(=O)N2Cc2ccccc2F)C1C (configuration not stated),-4.43%,2.24%,-0.719%,-4.77%,-3.27%
COc1ccccc1CNC(=O)C1(C)Cn2cnc(C(=O)NCc3ccccc3Cl)c2C(=O)N1C1CC1 (configuration not stated),-9.57%,0.513%,-2.83%,-5.94%,-6.92%
CC(C)Cn1c(=O)c2ccccc2n2c(SCc3ccccc3F)nnc12,-0.488%,0.686%,7.17%,-0.115%,3.37%

SMILES,"activity change, negative = inhibition [1]","activity change, negative = inhibition [2]","activity change, negative = inhibition [3]","activity change, negative = inhibition [4]","activity change, negative = inhibition [5]"
O=C1NCCCCCN(CC2CCCCC2)[C@H]2CCC[C@@H]12,-8.33%,-3.86%,-1.95%,-4.3%,7.2%
C=Cc1ccc(Cn2nc3n(C)c(=O)c4ccc(C(=O)NC5CCCCC5)cc4n3c2=O)cc1,0.942%,4.89%,3.84%,2.04%,2.79%
C[C@@H]1O[C@@H](O[C@H]2[C@H](O)[C@@H](C(=O)O)O[C@@H](O[C@H]3CC[C@@]4(C)C(CC[C@]5(C)C4CC=C4C6CC(C)(C)CC[C@]6(C(=O)O)CC[C@]45C)C3(C)C)[C@@H]2O[C@@H]2O[C@H](CO)[C@@H](O)[C@H](O)[C@H]2O)[C@H](O)[C@H](O)[C@H]1O (some centres not stated),0%,2.38%,4.64%,-12.7%,8.01%
COc1ccc(CC2NCCc3c2[nH]c2ccc(C)cc32)cc1OC (configuration not stated),0.373%,9.72%,-7.63%,-19.9%,4.98%
CCc1nc(CC)n2ccn(Cc3ccc(OC)cc3)c(=O)c12,-3.34%,2.22%,-1.17%,-7.31%,-1.16%
Cc1nc(NC(=O)N2CCCC2C(N)=O)sc1-c1ccnc(C(C)(C)C(F)(F)F)c1 (configuration not stated),-15.9%,–,-11.5%,–,–
CC(C)Cc1cc(CC2(NC3CCOCC3)COC2)no1,-4.46%,-3.58%,-3.02%,-6.63%,-2.44%
Cc1cc(C)cc(CCC(=O)N2CCN(c3ccc(C#N)cn3)CC2)c1,-5.54%,-2.53%,-2.62%,-12.3%,-8.51%
O=C(NC1CCCC1)c1ccc2c(=O)n(Cc3ccccc3)c3nn(Cc4cccc(F)c4)c(=O)n3c2c1,0.498%,-1.9%,2.87%,-4.39%,-1.93%
CC(C)CCNC(=O)C1(C)Cn2c(cc3ccccc32)C(=O)N1CCc1ccccc1Cl (configuration not stated),2.37%,0.687%,-1.6%,-5.09%,-3.09%
O=C(Nc1ccc2c(c1)OCCO2)N1CC(c2nc(CCOCC3CC3)no2)C1,-5.93%,-8.19%,-3.54%,-8.46%,-3.85%
CC(C(=O)O)c1ccc(CC2CCCC2=O)cc1 (configuration not stated),6.82%,14.1%,6.59%,0.459%,11.2%
CCc1cccc(NC(=O)Cn2nc3n(CC(C)C)c(=O)c4ccc(C(=O)NCC(C)C)cc4n3c2=O)c1,8.17%,0.707%,10.1%,3.87%,5.71%
CC(CNC(=O)CCc1nnc2ccc(NCCCN3CCCC3=O)nn12)c1ccccc1 (configuration not stated),0.84%,3.4%,7.85%,6.68%,8.74%
Cc1cc2c(cc3n2CC(C)(C(=O)NC2CCCCCC2)N(CCN2CCN(C)CC2)C3=O)o1 (configuration not stated),0.024%,4.19%,1.27%,-1.67%,-2.63%
C=CC1(C)C=C2C(=O)CC3C(C)(C)CCCC3(C(=O)O)C2(O)CC1 (configuration not stated),0%,6.59%,9.83%,-6.08%,7.36%
CN1C(=O)c2cc(C(=O)NCCCN3CCCC3=O)nn2CC1(C)C(=O)NCc1ccc(F)cc1 (configuration not stated),0.921%,2.7%,-2.41%,1.58%,-1.56%
CCc1cc2c(cc3n2CC(C)(C(=O)NC2CCC(C)CC2)N(c2cccc(F)c2)C3=O)s1 (configuration not stated),1.82%,0.324%,2.91%,5.23%,1.22%
